31 molecules from paper PMC9911399, “Two distinct binding modes provide the RNA-binding protein RbFox with extraordinary sequence specificity” can be followed below.

The chains are these.
T1: RBFOX1 RRM (Homo sapiens, UniProt Q9NWB1 109-208)
T1 sequence: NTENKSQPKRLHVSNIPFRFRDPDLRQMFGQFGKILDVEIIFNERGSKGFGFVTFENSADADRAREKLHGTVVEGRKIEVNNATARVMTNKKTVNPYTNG

B1: AGACGCU (DNA:RNA)
RNA: GGGAGACCGGAAUUCAGAUUGUCCAGACGCUUUAAAUCCCGUCGUAGCCACCA
DNA 1: CAATCTGAATTCCGGTCTCCC
DNA 2: TGGTGGCTACGACGGGATT
B2: CCGUUAU (DNA:RNA)
RNA: B1 RNA with A25C, G26C, A27G, C28U, G29U, C30A
DNA 1: CAATCTGAATTCCGGTCTCCC
DNA 2: TGGTGGCTACGACGGGATT
B3: GUUCUCU (DNA:RNA)
RNA: B1 RNA with A25G, G26U, A27U, G29U
DNA 1: CAATCTGAATTCCGGTCTCCC
DNA 2: TGGTGGCTACGACGGGATT
B4: UCUUCCC (DNA:RNA)
RNA: B1 RNA with A25U, G26C, A27U, C28U, G29C, U31C
DNA 1: CAATCTGAATTCCGGTCTCCC
DNA 2: TGGTGGCTACGACGGGATT
B5: UUAUUGG (DNA:RNA)
RNA: B1 RNA with A25U, G26U, C28U, G29U, C30G, U31G
DNA 1: CAATCTGAATTCCGGTCTCCC
DNA 2: TGGTGGCTACGACGGGATT
B6: AUUUUGA (DNA:RNA)
RNA: B1 RNA with G26U, A27U, C28U, G29U, C30G, U31A
DNA 1: CAATCTGAATTCCGGTCTCCC
DNA 2: TGGTGGCTACGACGGGATT
B7: AUUUCUU (DNA:RNA)
RNA: B1 RNA with G26U, A27U, C28U, G29C, C30U
DNA 1: CAATCTGAATTCCGGTCTCCC
DNA 2: TGGTGGCTACGACGGGATT
B8: UUUGUAU (DNA:RNA)
RNA: B1 RNA with A25U, G26U, A27U, C28G, G29U, C30A
DNA 1: CAATCTGAATTCCGGTCTCCC
DNA 2: TGGTGGCTACGACGGGATT
B9: CUACCGC (DNA:RNA)
RNA: B1 RNA with A25C, G26U, G29C, C30G, U31C
DNA 1: CAATCTGAATTCCGGTCTCCC
DNA 2: TGGTGGCTACGACGGGATT
B10: AGCAGAG (DNA:RNA)
RNA: B1 RNA with A27C, C28A, C30A, U31G
DNA 1: CAATCTGAATTCCGGTCTCCC
DNA 2: TGGTGGCTACGACGGGATT
B11: UCAUUGA (DNA:RNA)
RNA: B1 RNA with A25U, G26C, C28U, G29U, C30G, U31A
DNA 1: CAATCTGAATTCCGGTCTCCC
DNA 2: TGGTGGCTACGACGGGATT
B12: UCUAUAC (DNA:RNA)
RNA: GGGAGACCGGAAUUCAGAUUGUCCUCUAUACUUAAAUCCCGUCGUAGCCACCA
DNA 1: CAATCTGAATTCCGGTCTCCC
DNA 2: TGGTGGCTACGACGGGATT
B13: UAUCGCC (DNA:RNA)
RNA: B1 RNA with A25U, G26A, A27U, U31C
DNA 1: CAATCTGAATTCCGGTCTCCC
DNA 2: TGGTGGCTACGACGGGATT
B14: CGCCUUU (DNA:RNA)
RNA: B1 RNA with A25C, A27C, G29U, C30U
DNA 1: CAATCTGAATTCCGGTCTCCC
DNA 2: TGGTGGCTACGACGGGATT
B15: GCGUCAU (DNA:RNA)
RNA: B12 RNA with U25G, U27G, A28U, U29C, C31U
DNA 1: CAATCTGAATTCCGGTCTCCC
DNA 2: TGGTGGCTACGACGGGATT
B16: UUCUGUU (DNA:RNA)
RNA: B1 RNA with A25U, G26U, A27C, C28U, C30U
DNA 1: CAATCTGAATTCCGGTCTCCC
DNA 2: TGGTGGCTACGACGGGATT
B17: GAGAGUC (DNA:RNA)
RNA: B12 RNA with U25G, C26A, U27G, U29G, A30U
DNA 1: CAATCTGAATTCCGGTCTCCC
DNA 2: TGGTGGCTACGACGGGATT
B18: UCUAGGG (DNA:RNA)
RNA: B12 RNA with U29G, A30G, C31G
DNA 1: CAATCTGAATTCCGGTCTCCC
DNA 2: TGGTGGCTACGACGGGATT
B19: CUCAACU (DNA:RNA)
RNA: B1 RNA with A25C, G26U, A27C, C28A, G29A
DNA 1: CAATCTGAATTCCGGTCTCCC
DNA 2: TGGTGGCTACGACGGGATT
B20: UCCACAG (DNA:RNA)
RNA: B12 RNA with U27C, U29C, C31G
DNA 1: CAATCTGAATTCCGGTCTCCC
DNA 2: TGGTGGCTACGACGGGATT
B21: AUAAUGC (DNA:RNA)
RNA: B12 RNA with U25A, C26U, U27A, A30G
DNA 1: CAATCTGAATTCCGGTCTCCC
DNA 2: TGGTGGCTACGACGGGATT
B22: GAUAUAG (DNA:RNA)
RNA: B12 RNA with U25G, C26A, C31G
DNA 1: CAATCTGAATTCCGGTCTCCC
DNA 2: TGGTGGCTACGACGGGATT
B23: UGGAGAA (DNA:RNA)
RNA: B12 RNA with C26G, U27G, U29G, C31A
DNA 1: CAATCTGAATTCCGGTCTCCC
DNA 2: TGGTGGCTACGACGGGATT
B24: AUCGAAA (DNA:RNA)
RNA: B1 RNA with G26U, A27C, C28G, G29A, C30A, U31A
DNA 1: CAATCTGAATTCCGGTCTCCC
DNA 2: TGGTGGCTACGACGGGATT
B25: CAAUCUC (DNA:RNA)
RNA: B1 RNA with A25C, G26A, C28U, G29C, C30U, U31C
DNA 1: CAATCTGAATTCCGGTCTCCC
DNA 2: TGGTGGCTACGACGGGATT
B26: GAAUACC (DNA:RNA)
RNA: B1 RNA with A25G, G26A, C28U, G29A, U31C
DNA 1: CAATCTGAATTCCGGTCTCCC
DNA 2: TGGTGGCTACGACGGGATT
B27: AAGAGAU (DNA:RNA)
RNA: B1 RNA with G26A, A27G, C28A, C30A
DNA 1: CAATCTGAATTCCGGTCTCCC
DNA 2: TGGTGGCTACGACGGGATT
B28: GCCAACC (DNA:RNA)
RNA: B12 RNA with U25G, U27C, U29A, A30C
DNA 1: CAATCTGAATTCCGGTCTCCC
DNA 2: TGGTGGCTACGACGGGATT
B29: UGUUCUG (DNA:RNA)
RNA: B12 RNA with C26G, A28U, U29C, A30U, C31G
DNA 1: CAATCTGAATTCCGGTCTCCC
DNA 2: TGGTGGCTACGACGGGATT
B30: UGCUAGG (DNA:RNA)
RNA: B1 RNA with A25U, A27C, C28U, G29A, C30G, U31G
DNA 1: CAATCTGAATTCCGGTCTCCC
DNA 2: TGGTGGCTACGACGGGATT
B31: CAAUGAG (DNA:RNA)
RNA: B1 RNA with A25C, G26A, C28U, C30A, U31G
DNA 1: CAATCTGAATTCCGGTCTCCC
DNA 2: TGGTGGCTACGACGGGATT

Changes are numbered by the printed parent chain; changes in the protein carry UniProt numbers. The list shows a part of the results.

The target in this assay is T1, RBFOX1 RRM. Nature of the assay: EMSA; HiTS-Eq, 1 nM pool, 10 min; buffer printed only for the single-RNA assays: 10 mM Tris pH 7.5, 150 mM NaCl, 3.4 mM EDTA, 0.001% NP-40, 30 C. As to conditions: tags: His6 N-terminal (pET28a); label: 5' 32P. In short, it runs like this: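 Purified RbFox RRM, wild type or mutant, was incubated for 10 min in 50 µL with 1 nM of a 5′-radiolabelled RNA pool carrying 7 randomized nucleotides, whose flanks were annealed to DNA oligonucleotides, over a series of increasing protein concentrations. Unbound RNA was resolved on 8% native PAGE, cut out, reverse-transcribed, barcoded by PCR and sequenced on an Illumina HiSeq 2500. Relative association constants were derived from changes in read counts for each RNA species versus the control reaction and normalised to the cognate motif.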
On the technique in general: In EMSA bound probe runs differently from free probe, usually more slowly.
For the molecule B1, the binding signal is 0.00766 KA relative to UGCAUGU. To B2 belongs 0.00696 KA relative to UGCAUGU. With B3, the binding signal was 0.0178 KA relative to UGCAUGU. To B4 belongs 0.0053 KA relative to UGCAUGU. To B5 belongs 0.0112 KA relative to UGCAUGU; to B6, 0.0123 KA relative to UGCAUGU.

Take B7: the binding signal was 0.00893 KA relative to UGCAUGU.

For the molecule B8, the binding signal is 0.00777 KA relative to UGCAUGU. The result for B9 reads 0.00361 KA relative to UGCAUGU. To B10 belongs 0.00729 KA relative to UGCAUGU; to B11, 0.0112 KA relative to UGCAUGU; to B12, 0.00378 KA relative to UGCAUGU. To B13 belongs 0.0118 KA relative to UGCAUGU. For the molecule B14, the binding signal is 0.00869 KA relative to UGCAUGU. The result for B15 reads 0.00855 KA relative to UGCAUGU; that for B16, 0.0253 KA relative to UGCAUGU. To B17 belongs 0.0183 KA relative to UGCAUGU. The result for B18 reads 0.00357 KA relative to UGCAUGU. For B19, the binding signal was 0.00198 KA relative to UGCAUGU. The result for B20 reads 0.00688 KA relative to UGCAUGU; that for B21, 0.00508 KA relative to UGCAUGU. For B22, the binding signal is 0.0101 KA relative to UGCAUGU.

Turning to B23, the binding signal was 0.0194 KA relative to UGCAUGU. Regarding B24, the binding signal was 0.00229 KA relative to UGCAUGU.

Turning to B25, the binding signal was 0.000563 KA relative to UGCAUGU. As for B26, the binding signal was 0.00111 KA relative to UGCAUGU. The result for B27 reads 0.00833 KA relative to UGCAUGU; that for B28, 0.00424 KA relative to UGCAUGU; that for B29, 0.0328 KA relative to UGCAUGU. To B30 belongs 0.017 KA relative to UGCAUGU; to B31, 0.0097 KA relative to UGCAUGU.
